Hit rate of the full screen: of about 310,000 compounds, about 2,200 (0.71%) showed an effect of 50% or more. Effects have a minus sign here. This is one part of the list.
target: human ether-à-go-go-related gene (hERG) potassium channel (human, UniProt Q12809); assay: primary screen, population patch clamp on CHO cells stably expressing hERG
Sequence (Q12809 whole entry, looked up): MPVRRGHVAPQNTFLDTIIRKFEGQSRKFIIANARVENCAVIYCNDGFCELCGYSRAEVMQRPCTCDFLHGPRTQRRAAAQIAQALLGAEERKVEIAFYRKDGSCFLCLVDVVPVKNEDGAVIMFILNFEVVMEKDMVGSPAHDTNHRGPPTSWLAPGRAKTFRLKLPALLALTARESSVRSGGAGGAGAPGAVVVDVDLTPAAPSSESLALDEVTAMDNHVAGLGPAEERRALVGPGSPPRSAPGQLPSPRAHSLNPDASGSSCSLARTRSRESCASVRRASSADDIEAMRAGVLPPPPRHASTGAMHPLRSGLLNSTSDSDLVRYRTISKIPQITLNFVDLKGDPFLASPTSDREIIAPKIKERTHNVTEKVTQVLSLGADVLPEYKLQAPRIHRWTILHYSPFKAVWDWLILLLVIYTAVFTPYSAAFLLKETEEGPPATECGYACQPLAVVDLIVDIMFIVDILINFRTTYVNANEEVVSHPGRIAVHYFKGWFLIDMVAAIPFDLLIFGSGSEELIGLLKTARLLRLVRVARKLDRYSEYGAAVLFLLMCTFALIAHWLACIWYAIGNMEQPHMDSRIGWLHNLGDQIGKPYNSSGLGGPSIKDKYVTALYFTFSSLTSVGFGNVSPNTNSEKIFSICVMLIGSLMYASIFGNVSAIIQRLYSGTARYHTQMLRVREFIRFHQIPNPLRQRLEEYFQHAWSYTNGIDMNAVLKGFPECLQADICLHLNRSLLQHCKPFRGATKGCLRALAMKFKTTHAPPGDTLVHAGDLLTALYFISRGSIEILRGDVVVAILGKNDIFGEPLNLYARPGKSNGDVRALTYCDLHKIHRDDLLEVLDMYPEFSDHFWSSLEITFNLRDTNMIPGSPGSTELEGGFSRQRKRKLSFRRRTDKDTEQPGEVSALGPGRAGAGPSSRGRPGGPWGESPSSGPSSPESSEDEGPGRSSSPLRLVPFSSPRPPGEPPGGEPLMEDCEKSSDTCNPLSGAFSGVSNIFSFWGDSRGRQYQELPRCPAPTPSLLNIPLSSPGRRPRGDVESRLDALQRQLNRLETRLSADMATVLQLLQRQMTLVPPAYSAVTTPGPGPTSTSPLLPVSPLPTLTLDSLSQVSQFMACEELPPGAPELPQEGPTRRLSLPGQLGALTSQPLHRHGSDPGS

Going from `O=C(NCCN1CCOCC1)Nc1ccc(Cl)cc1` to `Cn1c(CN2CCCC2)nc2cc(NC(=O)c3ccc(Cl)cc3)ccc21`, the “hERG current change (%, negative = inhibition) at 1uM” value falls from 14.2% to -11.3%.

Going from `COc1ccc(-c2cc(C(=O)Nc3cc(OC)cc(C(=O)Nc4cccc(C(F)(F)F)c4)c3)[nH]n2)cc1` to `COc1ccc(C(=O)Nc2ccc(C(=O)c3ccccc3)cc2)cc1`, the “hERG current change (%, negative = inhibition) at 1uM” value rises from -5.22% to 19.7%.

Compared with `COCc1ccc(CN2CCCC(CO)(Cc3cccc(OC)c3)C2)o1` (centres unmarked), `COc1cccc(CCc2nnc(CCC(=O)N(C)C3CC(C)(C)NC(C)(C)C3)o2)c1` is higher in “hERG current change (%, negative = inhibition) at 1uM” value: -6.79% for the first, 12.1% for the second.

Compared with `CCOC(=O)C1CCC/C1=N\NC(=O)CN(c1cc(OC)ccc1OC)S(=O)(=O)c1ccccc1` (centres unmarked), `CCC(=O)N1CCc2cc(Br)cc(S(=O)(=O)N(C)c3ccc(OC)cc3OC)c21` is higher in “hERG current change (%, negative = inhibition) at 1uM” value: -1.72% for the first, 12.7% for the second.

Compared with `COc1ccc(CCNC(=O)CC2(CC3=NS(=O)(=O)c4ccccc4N3)CCCC2)cc1OC`, `CCCCOc1ccc(C(=O)NN2C(=O)NC3(CCCCC3)C2=O)cc1OC` is higher in “hERG current change (%, negative = inhibition) at 1uM” value: -1.15% for the first, 12.3% for the second.

Going from `Cc1cccc(NC(=O)NC2CCCCCCC2)c1C` to `O=C(NC1CCCCC1)c1cccc(Cn2cc(Cl)cn2)c1`, the “hERG current change (%, negative = inhibition) at 1uM” value falls from 12.9% to 7.71%.

Going from `COc1ccc2nc(NC(=O)C(NS(=O)(=O)c3cccc4nsnc34)C(C)C)sc2c1` (centres unmarked) to `COc1ccc(OC)c(C(=O)CSc2nc3ccccc3n2CC(=O)NC(C)(C)C)c1`, the “hERG current change (%, negative = inhibition) at 1uM” value rises from 9.04% to 10.2%.

Compared with `CCOC(=O)c1cc(-c2cc3ccccc3o2)n[nH]1`, `COc1ccccc1NC(=O)CCNS(=O)(=O)c1ccc2[nH]c(=O)oc2c1` is lower in “hERG current change (%, negative = inhibition) at 1uM” value: 10.2% for the first, 9.11% for the second.

Going from `Cc1cc2cc(C(c3nnnn3C3CCCC3)N(Cc3cccnc3)Cc3ccco3)c(=O)[nH]c2cc1C` (centres unmarked) to `CC1(c2nnc(-c3ccccc3)o2)CC(c2cccnc2)=NO1` (centres unmarked), the “hERG current change (%, negative = inhibition) at 1uM” value rises from -0.767% to 13.3%.

Going from `CC(/C=N\NC(=O)Cn1c(C)nc2ccccc21)=C\c1ccccc1` to `C/C(=C\c1ccccc1)C(=O)Nc1ccc(Cl)cn1`, the “hERG current change (%, negative = inhibition) at 1uM” value falls from 15.5% to 10.8%.

First: Clc1ccc(COn2c(-c3ccc(Cl)cc3Cl)nc3ncccc32)cc1
Second: COc1ccc(Cc2nc(-c3ccc(NC(=O)c4cccnc4)cc3)no2)cc1
The “hERG current change (%, negative = inhibition) at 1uM” value of the first is lower: 8.26% for the first, 16.8% for the second.

First: COCCN(C(=O)c1ccco1)c1nnc(-c2ccc(OC)cc2)s1
Second: COc1ccc(COC(=O)NNC(=O)c2ccccc2Cl)cc1
The “hERG current change (%, negative = inhibition) at 1uM” value of the first is higher: 12.3% for the first, 5.34% for the second.

Compared with `CN(C)c1ccc(/C=N/NC(=O)CCc2nc3ccccc3[nH]2)cc1`, `CN(C(=O)Cc1c(C(=O)O)n(C)c2ccccc12)c1ccc(F)cc1` is lower in “hERG current change (%, negative = inhibition) at 1uM” value: 14.1% for the first, 7.28% for the second.

Compared with `CN(C)c1ccc(C(=O)Nc2nc3c(s2)CCCC3)cc1`, `O=C(Nc1ccon1)c1ccc(S(=O)(=O)N2CCOCC2)cc1` is higher in “hERG current change (%, negative = inhibition) at 1uM” value: 7.08% for the first, 24.2% for the second.

First: CC1CCN(S(=O)(=O)c2ccc(NC(=O)CN3CCN(C)CC3)cc2)CC1
Second: COc1ccc(S(=O)(=O)N2CCOCC2)cc1NC(=O)CN1CCCCCC1
The “hERG current change (%, negative = inhibition) at 1uM” value of the first is lower: 3.35% for the first, 7% for the second.

Compared with `CC(NC(=O)CCNS(=O)(=O)c1ccc2c(c1)c(=O)n(C)c(=O)n2C)c1ccccc1` (centres unmarked), `CC(C)C[C@H](NC(=O)[C@H](Cc1ccccc1)n1c(=O)[nH]c2ccccc2c1=O)C(=O)N1CCC[C@@H]1C(=O)O` is higher in “hERG current change (%, negative = inhibition) at 1uM” value: -0.673% for the first, 5.46% for the second.

Going from `O=C(c1cc[n+]([O-])cc1)N1CCc2c([nH]c3ccccc23)C1c1ccccc1Cl` (centres unmarked) to `O=C(c1ccc([N+](=O)[O-])cc1)N1CCc2ccccc21`, the “hERG current change (%, negative = inhibition) at 1uM” value rises from 7.21% to 7.69%.

Compared with `CCOCCn1c(SCc2ccc(F)cc2)nc2c1c(=O)[nH]c(=O)n2C`, `CCc1ccc(-c2ccc3nnc(SC)n3n2)cc1` is lower in “hERG current change (%, negative = inhibition) at 1uM” value: 5.52% for the first, 1.82% for the second.

First: O=C(NC1CCCC1)C1CCN(c2nccs2)CC1
Second: O=C(O)C1CCN(S(=O)(=O)c2cccnc2)CC1
The “hERG current change (%, negative = inhibition) at 1uM” value of the first is higher: 10.5% for the first, 6.26% for the second.

Going from `Cc1cccc(NC(=O)Cc2ccc(-c3ccccc3)cc2)n1` to `CC(Sc1n[nH]c(N)n1)C(=O)Nc1ccccc1-c1ccccc1` (centres unmarked), the “hERG current change (%, negative = inhibition) at 1uM” value rises from 9.98% to 13.1%.

Compared with `COc1ccc(N2CCN(C(=O)c3ccccc3NS(=O)(=O)c3ccccc3)CC2)cc1`, `CCc1ccccc1N1CC(C(=O)Nc2cc(S(=O)(=O)N3CCCC3)ccc2Cl)CC1=O` (centres unmarked) is lower in “hERG current change (%, negative = inhibition) at 1uM” value: 9.47% for the first, 1.31% for the second.

Going from `Cl.O=C(CCCN1CCC(c2ccccc2)C1)c1ccc2c(c1)OCCO2` (centres unmarked) to `O=C(O)CCC(=O)c1ccc2c(c1)OCCCO2`, the “hERG current change (%, negative = inhibition) at 1uM” value rises from -29.8% to 7.12%.

Compared with `Cc1cccc(C(=O)/C=C2/c3ccccc3CC(C)(C)N2C)c1`, `Cc1ccc(C)c(NC(=O)N2CCc3ccccc3C2)c1` is higher in “hERG current change (%, negative = inhibition) at 1uM” value: -5.71% for the first, 11.6% for the second.

Going from `Cc1cc(NC(=O)NN2CCOCC2)nn1-c1c(Cl)cccc1Cl` to `CC12CCC(=O)N1C(C(=O)Nc1cc(Cl)ccc1N1CCOCC1)CS2` (centres unmarked), the “hERG current change (%, negative = inhibition) at 1uM” value falls from 13.6% to -5.07%.

Going from `CC(C)C(=O)N1CCN(c2cc(N3CCN(C)CC3)c(F)cc2[N+](=O)[O-])CC1` to `Cc1ccc(C)c(N2CCN(CCCNC(=O)Cn3cc4c(n3)CCC(C)C4)CC2)c1` (centres unmarked), the “hERG current change (%, negative = inhibition) at 1uM” value falls from 0.106% to -45.1%.

Going from `CCc1ccc(NC(=S)NC2CC3CCCC(C2)N3Cc2cccs2)cc1` (centres unmarked) to `CCOC(=O)c1ccc(NC(=S)NC2CC(C)(C)NC(C)(C)C2)cc1`, the “hERG current change (%, negative = inhibition) at 1uM” value falls from 9.83% to 3.25%.

First: O=c1c2ccccc2cnn1Cc1n[nH]c(=S)n1C1CC2CCC1C2 (centres unmarked)
Second: CC1(C)CC(=O)C=C(c2ccc3ccccc3c2)C1
The “hERG current change (%, negative = inhibition) at 1uM” value of the first is lower: 11.5% for the first, 15.7% for the second.

Going from `CC(C)C[C@H]1CN=C(N(C)C)N1CC1CCCC1` to `Cc1cccc(CCN2C(Nc3ccccc3)=NC[C@@H]2CC(C)C)c1`, the “hERG current change (%, negative = inhibition) at 1uM” value falls from 11.1% to -46.8%.

Compared with `CCCOC(=O)CCCC[C@H]1SC[C@@H](NC(=O)OC)[C@H]1NC(=O)OC`, `COCCCNC(=O)C(=O)N/N=C/c1ccc(OCC(=O)Nc2cccc(Cl)c2C)c(OC)c1` is higher in “hERG current change (%, negative = inhibition) at 1uM” value: -1.35% for the first, 8.72% for the second.

Compared with `Cc1csc(NC(=O)c2ccccc2[N+](=O)[O-])n1`, `O=C(NCCNc1ccc([N+](=O)[O-])cc1)c1ccccc1F` is lower in “hERG current change (%, negative = inhibition) at 1uM” value: 11.5% for the first, 9.3% for the second.

First: COc1ccccc1OCCCCN1CCCCC1
Second: COc1ccccc1OCCC(=O)OCC(=O)Nc1cccc(Br)c1
The “hERG current change (%, negative = inhibition) at 1uM” value of the first is higher: 8.59% for the first, -3.95% for the second.

Going from `Cc1ccc(N2CN=C(c3ccccc3)NC2=S)cc1` to `Cc1ccc(C(=O)NNC(=S)NC(=O)COc2ccccc2)cc1`, the “hERG current change (%, negative = inhibition) at 1uM” value rises from 4.49% to 11.2%.

First: Cn1cnnc1SC(C(=O)Nc1cc(Cl)cc(Cl)c1)c1ccccc1 (centres unmarked)
Second: CCn1c(SCC(=O)Nc2ccc(N3CCOCC3)cc2)nnc1-c1ccncc1
The “hERG current change (%, negative = inhibition) at 1uM” value of the first is lower: 20.4% for the first, 27.3% for the second.

Going from `CN(Cc1ccc(F)cc1)C(=O)c1cc(COc2ccc(-n3cncn3)cc2)on1` to `Cc1noc(C)c1COC(=O)c1cccnc1SCC(=O)Nc1ccc2c(c1)OCO2`, the “hERG current change (%, negative = inhibition) at 1uM” value rises from -18.4% to 8.42%.

First: COc1cccc(CNCc2ccc(SC)cc2)c1OC
Second: COc1ccccc1N1Cc2ccc(OC)c(OC)c2C1=O
The “hERG current change (%, negative = inhibition) at 1uM” value of the first is lower: -16.2% for the first, 9.06% for the second.

First: CCc1noc(C)c1C(=O)NNC(=O)COc1ccc(C)c(C)c1
Second: CCOc1c(C)cc(S(=O)(=O)NCc2ccccn2)c(C)c1C
The “hERG current change (%, negative = inhibition) at 1uM” value of the first is lower: 5.82% for the first, 14.6% for the second.

First: O=C(N/N=C/c1ccco1)c1[nH]ncc1Br
Second: CC(C)CC1NC(=O)N(CC(=O)Nc2cc(F)ccc2F)C1=O (centres unmarked)
The “hERG current change (%, negative = inhibition) at 1uM” value of the first is lower: 11.8% for the first, 19.4% for the second.

Compared with `COc1cc(/C=C/C2=CC(C)(C)NC(=S)N2)cc(OC)c1OC`, `COC(=O)c1cc(S(=O)(=O)Nc2cc(S(=O)(=O)N(C)C)ccc2C)oc1C` is lower in “hERG current change (%, negative = inhibition) at 1uM” value: 8.95% for the first, 6.43% for the second.

Compared with `Cc1ccccc1N1C(=O)CC(Nc2ccc3c(c2)OCO3)C1=O` (centres unmarked), `CC(c1ccc(Br)cc1)N1CC23C=CC(O2)C(C(=O)O)C3C1=O` (centres unmarked) is lower in “hERG current change (%, negative = inhibition) at 1uM” value: 7.6% for the first, 4.18% for the second.

Compared with `CCOC(=O)C1=C(C)N(CCCC(=O)O)C(=O)NC1c1ccc(Br)cc1` (centres unmarked), `CCCCc1c(C)nc2ccc(C)cc2c1SCCC(=O)O` is lower in “hERG current change (%, negative = inhibition) at 1uM” value: 2.78% for the first, 0.904% for the second.

Going from `CC1CCN(C(=O)C2CCC(=O)N(Cc3ccc(Cl)cc3)C2)CC1` (centres unmarked) to `O=C1C2CCN(CC2)C12CC2c1ccc(C(F)(F)F)cc1` (centres unmarked), the “hERG current change (%, negative = inhibition) at 1uM” value rises from 8.53% to 15.9%.

Compared with `CCOc1c(C(=O)CC)cc2c(C)cc(=O)oc2c1C`, `CCCOC(c1ccccc1)(c1ccc(C(F)(F)F)cc1)C(Oc1nc(C)cc(C)n1)C(=O)O` (centres unmarked) is higher in “hERG current change (%, negative = inhibition) at 1uM” value: -9.82% for the first, 17.2% for the second.

Compared with `OC1/C(=C/c2ccc(C(F)(F)F)cc2)N2CCC1CC2` (centres unmarked), `O=[N+]([O-])c1cccc(/C=N/Nc2cc(N3CCOCC3)ncn2)c1` is lower in “hERG current change (%, negative = inhibition) at 1uM” value: 17.8% for the first, 8.22% for the second.

Compared with `Cc1nn(-c2ccccn2)c(N)c1N=O`, `CCS(=O)(=O)n1nc(-c2ccc(C)cc2)nc1N` is lower in “hERG current change (%, negative = inhibition) at 1uM” value: 10.3% for the first, 5.02% for the second.

With `Cl.N=c1sccn1CC(=O)NCCc1ccc(Cl)cc1` the “hERG current change (%, negative = inhibition) at 1uM” value was 2.49%.

Reference: paper PMC4336329 (PLoS ONE, 2015)
